# Assay results as given in patent US20100226974A1, “ANTIBODY RECOGNIZING ANTIGEN” (MITSUBISHI TANABE PHARMA CORPORATION, priority 2002, published 2010).
# B1: GAH antibody: human monoclonal antibody disclosed in EP-A-520499; heavy and light chain variable regions SEQ ID NOs:7 and 8 (antibody, listed as Homo sapiens, V domains shown)
# VH: QVQLQESGPGLVKPSQTLSLTCTVSGGSISSCGFYWNWIRQHPGKGLEWIGYIYYSGSTYYNPSLKSRVTISLDTSKSQFSLKLSSLTAADTAVYYCARSTRLRGADYWGQGTMVTVSS
# VL: DIVMTQSPDSLAVSLGERATINCKSSQSVLYNSNNKKYLAWYQQKPGQPPKLLIYWASTRESGVPDRFSGSGSGTDFTLTISSLQAEDVAVYYCQQYYSTPWTFGQGTKVEIKR
# Legend:
# [1] = tested on: nmMHCA-stably expressing cell line of HCT-15; experiment: Cell surface reactivity (antibody binding number) by flow cytometry, transplanted tumor cells of nmMHCA-stably expressing HCT-15; settings: FITC-labeled antibody 33 μg/ml in human serum
# Experimental: (§1) An nmMHCA-stably expressing cell line was suspended in MatriGel and subcutaneously transplanted into 2 spots under the back of a nude mouse at a dose of 5×10^6 cells/spot. Tumor was extracted after confirming its development and cut into thin pieces to collect tumor cells. FITC-labeled GAH antibody or FITC-labeled human immunoglobulin was diluted with human serum (Scanty Bodies Laboratory) to a concentration of 33 μg/ml. Also, FITC-labeled anti-nmMHC antibody or FITC-labeled rabbit IgG was diluted with human serum to a concentration of 50 μg/ml. These antibody solutions were thoroughly mixed with each of tumor cells and allowed to react for 1 hour under shade and ice-cooling. […] Cells were suspended in FACSflow (buffer attached to the flow cytometer) solution containing 5 μg/ml PI, PI-positive cells, namely dead cells, were excluded from the subject of analysis by gating operation in the same manner as in Example 1, and the mean value of FITC fluorescence intensity per one cell in the intact cell population was calculated. A calibration curve was prepared from the mean value, measured under the same condition, of fluorescence intensity of standard fluorescent beads (Flow Cytometry Standards) wherein the number of bound FITC molecules is already known, and the mean value of each sample was converted into the amount of bound FITC. […]
# [2] = tested on: tissue sections derived from nmMHCA-stably expressing cell lines (FL1, FL2, FL7); experiment: Immuno-staining of nude mouse transplantation cancer cell sections using nmMHCA-expressing HCT-15 cell lines; type: binding, human; settings: nmMHCA-stably expressing lines compared with mock cell section; biotin-labeled antibody, 37° C., 2 hours
# Experimental: Various nmMHCA-stably expressing cell lines of HCT-15 were suspended in MatriGel (Becton Dickinson) and subcutaneously transplanted into 2 spots under the back of a nude mouse at a dose of 5×10^6 cells/spot. Tumor was extracted after confirming its development, and a part thereof was soaked in 10% formalin-PBS to prepare paraffin sections, followed by hematoxylin-eosin (HE) staining at Nara Pathology Institute.
# Each section was treated with xylene and ethanol to remove paraffin, soaked in 10 mM sodium citrate, pH 6.0 buffer, exposed to microwave (3 times, 600 W 5 minutes for each), air-cooled by allowing to stand at room temperature for 30 minutes, and then soaked in 5% (w/v) BSA-PBSAz solution for 1 hour. The section was incubated with 66 μg/ml of biotin-labeled F(ab′)2 fragment of GAH antibody, or 100 μg/ml of biotin-labeled anti-nmMHC antibody, at 37° C. for 2 hours, and then allowed to react with 2.5 times diluted streptoavidin PerCP (Becton Dickinson) under ice-cooling and shade. After the reaction, red fluorescence of PerCP in the same visual field of each section was observed using Olympus incident-light fluorescence microscope BX-50.
# [3] = tested on: tumor cells formed by subcutaneous transplantation of MKN45 vs cultured cells of MKN45; experiment: Reactivity comparison of FITC-labeled GAH antibody by flow cytometry; type: binding, human; settings: FITC-labeled antibody 20 μg/ml, 4° C., 1 hour; FL1 mean channel number minus background
# Experimental: A human gastric cancer cell MKN45 (Immuno-Biological Laboratories) was cultured in a liquid medium eRDF (Gibco) containing 10% fetal bovine serum (Sigma), and the resulting cells were recovered and subcutaneously transplanted under the back of an about 5-week-old BALB/C node mouse (CLEA Japan). The thus formed subcutaneous tumor tissue was extracted, and a cell was isolated from the tissue in accordance with the method of Tokita et al., [Gan no Rinsho (Clinical Cancera), 32, 1803 (1986)]. The tissue was put on a Teflon sheet spread on a rubber plate, cut into thin pieces by tapping with a razor, and then passed through a nylon mesh (a cell strainer, FALCON) to remove the connective tissue. […]
# Cultured cells of MKN45 or cells of a solid tumor (hereinafter referred to as “tumor cells”) formed by subcutaneous transplantation of MKN45 were allowed to react with the GAH antibody described in EP-A-520499 and EP-A-1174126, which had been labeled with fluorescein isothiocyanate (FITC: Sigma), in a concentration of 20 μg/ml at 4° C. for 1 hour, and then washed once with phosphate buffered saline (PBS). […] By calculating the mean channel number of FL1 as an index of FITC fluorescence intensity, comparison of the cultured cells and tumor cells of MKN45 was carried out.
# [4] = tested on: nmMHCA-stably expressing cell line of COS-7; experiment: Cell surface reactivity (antibody binding number) by flow cytometry, transplanted tumor cells of nmMHCA-stably expressing COS-7; parameters: species or system Cercopithecus aetiopus; settings: FITC-labeled antibody 33 μg/ml in human serum
# Experimental: as §1
molecule,measurement,setting,value
B1,reactivity (antibody binding number) in comparison with the mock cell line,[1],increased
same,red fluorescence of PerCP in tissue sections,[2],strong red fluorescence
same,reactivity for the tumor cells relative to the cultured cells of MKN45,[3],about 18 times
same,reactivity (antibody binding number) in comparison with the mock cell line,[4],increased
